According to the supplement of paper PMC6609913:
Structures can show the parent of a compound that is named as a salt. ± gives the standard deviation of the averaged measurements. Whole data set: some 1,300 compounds, median “normalised cell viability” near 1, cut for the lowest 2% near 0.15. The list shows a part of the results.

Test system: V-C8 + BRCA2 (BRCA2-proficient hamster cells)
Test: normalised cell viability (fraction of plate median); higher = more viable cells (less toxic)
Settings: 5 µM
How it was run: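 Library drugs, held as 10 mM stocks in DMSO, were diluted to 5 μM in 100 μl medium and added to 96-well plates of V-C8 hamster cells, either lacking BRCA2 or with BRCA2 restored, 24 h after seeding. Plates ran for 3 days (screen 1) or 6 days (screen 2), alongside solvent-only wells. Viability came from a resazurin readout, median-plate normalised, as the mean of triplicate wells.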

| Structure (SMILES) | normalised cell viability (treatment time: 3 days) | normalised cell viability (treatment time: 6 days) |
| --- | --- | --- |
| CNCC[C@@H](Oc1ccccc1C)c1ccccc1 [Tomoxetine hydrochloride] | 0.99 ± 0.038 | 0.884 ± 0.022 |
| O=C(CCCCC(=O)Nc1c(I)cc(I)c(C(=O)O)c1I)Nc1c(I)cc(I)c(C(=O)O)c1I [Iodipamide] | 1.07 ± 0.05 | 1.02 ± 0.06 |
| COCCCOc1ccnc(C[S+]([O-])c2nc3ccccc3[nH]2)c1C (stereo not given) [Rabeprazole Sodium salt] | 0.924 ± 0.024 | 1.01 ± 0.019 |
| O=C(O)Cc1cc(I)c(Oc2ccc(O)c(I)c2)c(I)c1 [Tiratricol, 3,3',5-triiodothyroacetic acid] | 1.02 ± 0.021 | 1.08 ± 0.1 |
| CCCCOC(=O)c1ccc(O)cc1 [Butylparaben] | 1.01 ± 0.016 | 1.14 ± 0.043 |
| CCCc1nc2c(C)cc(-c3nc4ccccc4n3C)cc2n1Cc1ccc(-c2ccccc2C(=O)O)cc1 [Telmisartan] | 0.97 ± 0.036 | 0.936 ± 0.031 |
| CC(=O)/N=c1/sc(S(N)(=O)=O)nn1C [Methazolamide] | 1.08 ± 0.062 | 0.977 ± 0.052 |
| N=C(N)N1CCc2ccccc2C1 [Debrisoquin sulfate] | 1.081 ± 0.01 | 1.03 ± 0.017 |
| CCCCC1C(=O)N(c2ccccc2)N(c2ccccc2)C1=O [Phenylbutazone] | 1.007 ± 0.01 | 0.848 ± 0.16 |
| O=C(Nc1ccccc1)OCC(CN1CCCCC1)OC(=O)Nc1ccccc1 (stereo not given) [Diperodon hydrochloride] | 0.992 ± 0.073 | 0.992 ± 0.034 |
| CCCC(=O)Nc1ccc(OCC(O)CNC(C)C)c(C(C)=O)c1 (stereo not given) [Acebutolol hydrochloride] | 0.99 ± 0.034 | 1.04 ± 0.012 |
| CC(=O)Nc1ccc(OCC(O)CNC(C)C)cc1 (stereo not given) [Practolol] | 1.06 ± 0.025 | 1.05 ± 0.043 |
| CN1[C@@H]2CC[C@H]1C[C@@H](OC(c1ccccc1)c1ccccc1)C2 [Benztropine mesylate] | 1.05 ± 0.04 | 0.981 ± 0.028 |
| N=C(N=C(N)N)N1CCOCC1 [Moroxidine hydrochloride] | 0.911 ± 0.03 | 0.98 ± 0.047 |
| CC(=O)OCC(=O)[C@@]12OC3(CCCC3)O[C@@H]1C[C@H]1[C@@H]3CCC4=CC(=O)C=C[C@]4(C)[C@@]3(F)[C@@H](O)C[C@@]12C [Amcinonide] | 1.01 ± 0.07 | 1 ± 0.05 |
| Cc1cccc(C)c1NC(=O)CN1CCN(CCCC(c2ccc(F)cc2)c2ccc(F)cc2)CC1 [Lidoflazine] | 0.719 ± 0.041 | 0.803 ± 0.093 |
| CC(=O)O[C@]1(C(C)=O)CC[C@H]2[C@@H]3C=C(C)C4=CC(=O)CC[C@]4(C)[C@H]3CC[C@@]21C [Megestrol acetate] | 0.842 ± 0.17 | 0.924 ± 0.038 |
| CC[C@@]1(O)C(=O)OCc2c1cc1n(c2=O)Cc2cc3c(CN(C)C)c(O)ccc3nc2-1 [Topotecan] | 0.165 ± 0.0065 | 0.167 ± 0.011 |
| Nc1nnc(-c2cccc(Cl)c2Cl)c(N)n1 [Lamotrigine] | 0.987 ± 0.072 | 0.986 ± 0.044 |
| Clc1cc(Cl)c(OCC#CI)cc1Cl [Haloprogin] | 0.278 ± 0.01 | 0.247 ± 0.048 |
| Nc1nc(=O)[nH]cc1F [Flucytosine] | 0.964 ± 0.058 | 1.02 ± 0.05 |
| O=C1C(O)=C(O)C(=O)C(O)=C1O [Tetrahydroxy-1,4-quinone monohydrate] | 0.978 ± 0.037 | 1.02 ± 0.014 |
| Cc1nccn1CC1CCc2c(c3ccccc3n2C)C1=O (stereo not given) [Ondansetron Hydrochloride] | 1.104 ± 0.0039 | 1.22 ± 0.077 |
| CC(=O)NC[C@H]1CN(c2ccc(N3CCOCC3)c(F)c2)C(=O)O1 [Linezolid] | 1.06 ± 0.11 | 1.04 ± 0.04 |

| Structure (SMILES) | normalised cell viability (treatment time: 3 days) | normalised cell viability (treatment time: 6 days) |
| --- | --- | --- |
| COc1ccc2c(c1)c(CC(=O)OCC(=O)O)c(C)n2C(=O)c1ccc(Cl)cc1 [Acemetacin] | 1.07 ± 0.033 | 1.04 ± 0.11 |
| CCOCCn1c(N2CCCN(C)CC2)nc2ccccc21 [Emedastine] | 1.07 ± 0.11 | 1.06 ± 0.032 |
| CC[C@H](C)C(=O)O[C@H]1C[C@H](O)C=C2C=C[C@H](C)[C@H](CC[C@@H](O)C[C@@H](O)CC(=O)O)[C@H]21 [Pravastatin] | 0.969 ± 0.14 | 1.02 ± 0.089 |
| CC1=C(C(=O)O)N2C(=O)[C@@H](NC(=O)[C@H](N)c3ccccc3)[C@H]2SC1 [Cephalexin monohydrate] | 1.22 ± 0.055 | 0.998 ± 0.057 |
| CC(C)(C)NCC(O)COc1cccc2c1CC(O)C(O)C2 (stereo not given) [Nadolol] | 1.03 ± 0.05 | 1.06 ± 0.089 |
| CC(C)Cn1cnc2c(N)nc3ccccc3c21 [Imiquimod] | 1.02 ± 0.042 | 1.019 ± 0.0077 |
| NC(=O)N1c2ccccc2CC(=O)c2ccccc21 [Oxcarbazepine] | 1.113 ± 0.002 | 1.05 ± 0.033 |
| Cc1cccc(Nc2ccncc2S(=O)(=O)NC(=O)NC(C)C)c1 [Torsemide] | 1.08 ± 0.021 | 0.998 ± 0.024 |
| CC1(C)O[C@@H]2[C@@H](CO[C@@]3(COS(N)(=O)=O)OC(C)(C)O[C@@H]23)O1 [Topiramate] | 1.01 ± 0.063 | 1.03 ± 0.027 |
| COc1cc(NS(=O)(=O)c2ccc(N)cc2)nc(OC)n1 [Sulfadimethoxine] | 0.955 ± 0.019 | 0.907 ± 0.056 |
| CC[N+](CC)(CC(=O)Nc1c(C)cccc1C)Cc1ccccc1 [Denatonium benzoate] | 1.03 ± 0.055 | 1.087 ± 0.0065 |
| CN(Cc1ccc(C(C)(C)C)cc1)Cc1cccc2ccccc12 [Butenafine Hydrochloride] | 1.06 ± 0.05 | 0.982 ± 0.048 |
| CC(=O)CC(c1ccc([N+](=O)[O-])cc1)c1c(O)c2ccccc2oc1=O (stereo not given) [Acenocoumarol] | 0.92 ± 0.023 | 0.979 ± 0.053 |
| CCCCCCCCNC(C)C(O)c1ccc(SC(C)C)cc1 (stereo not given) [Suloctidil] | 0.653 ± 0.045 | 0.743 ± 0.068 |
| S=c1[nH]cnc2nc[nH]c12 [Mercaptopurine] | 0.767 ± 0.066 | 0.799 ± 0.008 |
| COc1ccc2c3c1O[C@H]1C[C@@H](O)C=C[C@@]31CCN(C)C2 [Galanthamine hydrobromide] | 0.989 ± 0.035 | 1.07 ± 0.11 |
| Cc1nnc(SCC2=C(C(=O)O)N3C(=O)[C@@H](NC(=O)Cn4cnnn4)[C@H]3SC2)s1 [Cefazolin sodium salt] | 1.1 ± 0.034 | 1.01 ± 0.12 |
| O=c1[nH]c(=O)n([C@H]2C[C@H](O)[C@@H](CO)O2)cc1C(F)(F)F [Trifluridine] | 0.337 ± 0.056 | 0.332 ± 0.037 |
| CC(C)NC(=N)NC(=N)Nc1ccc(Cl)cc1 [Proguanil hydrochloride] | 0.211 ± 0.013 | 0.203 ± 0.015 |
| C[C@]12CCC(=O)C=C1C=C[C@@H]1[C@@H]2CC[C@@]2(C)[C@H]1CC[C@@]21CCC(=O)O1 [Canrenone] | 1.02 ± 0.014 | 1.078 ± 0.0054 |
| CC1(C)S[C@@H]2[C@H](NC(=O)[C@H](N)c3ccccc3)C(=O)N2[C@H]1C(=O)OC1OC(=O)c2ccccc21 (stereo not given in full) [Talampicillin hydrochloride] | 1.01 ± 0.04 | 0.835 ± 0.22 |
| NC(=O)OCC(O)COc1ccc(Cl)cc1 (stereo not given) [Chlorphensin carbamate] | 0.929 ± 0.076 | 0.952 ± 0.08 |
| COC(=O)CCc1ccc(OCC(O)CNC(C)C)cc1 (stereo not given) [Esmolol hydrochloride] | 0.932 ± 0.14 | 0.875 ± 0.14 |
| COCCOC(=O)C1=C(C)NC(C)=C(C(=O)OC(C)C)C1c1cccc([N+](=O)[O-])c1 (stereo not given) [Nimodipine] | 1.21 ± 0.36 | 1.01 ± 0.032 |

| Structure (SMILES) | normalised cell viability (treatment time: 3 days) | normalised cell viability (treatment time: 6 days) |
| --- | --- | --- |
| CN1C(C(=O)Nc2ccccn2)=C(O)c2ccccc2S1(=O)=O [Piroxicam] | 1.02 ± 0.032 | 1.05 ± 0.015 |
| CNCCC=C1c2ccccc2C=Cc2ccccc21 [Norcyclobenzaprine] | 0.931 ± 0.082 | 0.919 ± 0.017 |
| NC(=O)c1ccc[n+]([C@@H]2O[C@H](COP(=O)([O-])OP(=O)(O)OC[C@H]3O[C@@H](n4cnc5c(N)ncnc54)[C@H](O)[C@@H]3O)[C@@H](O)[C@H]2O)c1 [Nadide] | 0.984 ± 0.038 | 1.11 ± 0.077 |
| O=C(CCCN1CCC(O)(c2ccc(Cl)cc2)CC1)c1ccc(F)cc1 [Haloperidol] | 0.926 ± 0.1 | 0.801 ± 0.076 |
| COc1ccc2c(c1)C(=O)N(CCc1ccc(S(=O)(=O)NC(=O)NC3CCCCC3)cc1)C(=O)C2(C)C [Gliquidone] | 1.09 ± 0.017 | 1.02 ± 0.024 |
| NS(=O)(=O)Cc1noc2ccccc12 [Zonisamide] | 0.995 ± 0.055 | 1.01 ± 0.11 |
| CN(C)CCN(Cc1ccc(Cl)cc1)c1ccccn1 [Chloropyramine hydrochloride] | 1.06 ± 0.086 | 0.9302 ± 0.004 |
| COc1ccc([C@@H]2Sc3ccccc3N(CCN(C)C)C(=O)[C@@H]2OC(C)=O)cc1 [Diltiazem hydrochloride] | 1.16 ± 0.083 | 0.992 ± 0.092 |
| Cc1cn([C@H]2C[C@H](N=[N+]=[N-])[C@@H](CO)O2)c(=O)[nH]c1=O [Zidovudine, AZT] | 1.05 ± 0.091 | 0.96 ± 0.031 |
| CC(C[N+](C)(C)C)OC(N)=O (stereo not given) [Bethanechol chloride] | 0.975 ± 0.056 | 1.04 ± 0.041 |
| CCCNC(C)C(=O)Nc1c(C)csc1C(=O)OC (stereo not given) [Articaine hydrochloride] | 1.03 ± 0.015 | 1.05 ± 0.035 |
| NCCc1cc[nH]n1 [Betazole hydrochloride] | 1.07 ± 0.052 | 1.05 ± 0.033 |
| COc1cccc(N(C)C(=S)Oc2ccc3c(c2)CCCC3)n1 [Liranaftate] | 0.8 ± 0.029 | 0.796 ± 0.043 |
| Cc1c(NC(C)C)c(=O)n(-c2ccccc2)n1C [Isopyrin hydrochloride] | 0.953 ± 0.029 | 0.976 ± 0.082 |
| COC1=CC(=O)C[C@@H](C)[C@]12Oc1c(Cl)c(OC)cc(OC)c1C2=O [Griseofulvin] | 0.853 ± 0.024 | 0.836 ± 0.038 |
| COc1cc(N)c(Cl)cc1C(=O)NC1CCN(CCCOc2ccc(F)cc2)CC1OC (stereo not given) [Cisapride] | 1.04 ± 0.075 | 0.999 ± 0.03 |
| CN(C)CCC(c1ccc(Cl)cc1)c1ccccn1 (stereo not given) [Chlorpheniramine maleate] | 1.18 ± 0.034 | 1.07 ± 0.073 |
| CCCC(CCC)C(=O)O [Valproic acid] | 0.998 ± 0.085 | 1.01 ± 0.034 |
| CN(C)CCCC1(c2ccc(F)cc2)OCc2cc(C#N)ccc21 (stereo not given) [Citalopram Hydrobromide] | 1.04 ± 0.023 | 0.923 ± 0.01 |
| Cc1onc(-c2ccccc2)c1C(=O)N[C@@H]1C(=O)N2[C@@H]1SC(C)(C)[C@@H]2C(=O)O [Oxacillin sodium] | 1.04 ± 0.042 | 0.989 ± 0.025 |
| O=C(O)CNC(=O)C(CS)Cc1ccccc1 (stereo not given) [Thiorphan] | 1.01 ± 0.011 | 0.945 ± 0.073 |
| Cc1c(OCC(F)(F)F)ccnc1C[S+]([O-])c1nc2ccccc2[nH]1 (stereo not given) [Lansoprazole] | 0.99 ± 0.086 | 1.06 ± 0.071 |
